# Assay results as given in PubChem BioAssay AID686978 (National Center for Advancing Translational Sciences (NCATS), 2013).
# Screen size: about 420,000 compounds; about 64,000 (15%) were called active. Inconclusive results, whose numbers are uncertain, are shown with a selection of clear calls. Calls follow the shape of the dose curve; as a rule, active = well fitted inhibition curve with a large enough effect; inconclusive = small, poorly fitted or top-dose-only effect; inactive = flat fitted curve, though single readings scatter. No potency is given beside an inconclusive call; the fits are too rough.
# Experiment: qHTS for Inhibitors of human tyrosyl-DNA phosphodiesterase 1 (TDP1): qHTS in cells in absence of CPT; also: nearly all actives have a fitted effect of over 55% in size
# Conditions: DT40 Tdp1-/- hTDP1 cells, no CPT, ATP luminescence, 48 h; activity change, negative = growth inhibition: at 46.2 µM (top of the series) unless noted
# Summary of the method: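 A cellular qHTS used chicken DT40 cells lacking endogenous Tdp1 but carrying stably transfected human TDP1. Compounds were applied without camptothecin, and cell growth kinetics were judged by ATP-dependent luminescence after ≥48 hr.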
# % is scaled to controls: 0 for no effect and ±100 for the full control effect; potency is read from the fitted curve at half-maximal effect; tags tell the direction and shape of the fitted curve.
Structure (SMILES),Potency,"activity change, negative = growth inhibition"
C[C@H](CO)N1C[C@H](C)[C@@H](CN(C)CC2CCCCC2)Oc2c(NC(=O)CCC(F)(F)F)cccc2C1=O,active: 14.6 µM,–
Cc1cc(NC(=O)CCSc2ccccc2)ccc1Br,inactive,–
O=C(CSc1cccc2cccnc12)N/N=C/c1ccc(O)cc1,"inconclusive [inhibitor, partial curve, poor fit]",–
O=C(NC1c2ccccc2-c2ccccc21)N1CCCCC1,"inconclusive [inhibitor, single point]",–
CC(C)(C)c1ccc(C(=O)Nc2ccc(Cl)cc2)cc1,inactive,–
O=C(O)CSc1ncnc2sc3c(c12)CCC3,"inconclusive [inhibitor, single point]",–
O=C(CC1C(=O)NCCN1CC1CCCCC1)NCc1ccc(F)cc1F (centres undefined),inactive,–
S=c1nc(NCc2cccc(Cl)c2)c2ccccc2[nH]1,inactive,–
COc1ccc(F)cc1S(=O)(=O)NCC(c1ccco1)S(=O)(=O)c1cccs1 (centres undefined),"inconclusive [inhibitor, single point]",–
CCc1cc[n+](CC(=O)Nc2ccc(Cl)cc2Cl)cc1,"inconclusive [inhibitor, single point]",–
COc1ccc(NC(=S)N(CCCN2CCOCC2)Cc2cn(C)c3ccccc23)cc1OC,"inconclusive [inhibitor, single point]",–
COc1cccc(-c2nn(C)c3sc(C(=O)N4CCOCC4)cc23)c1,"inconclusive [inhibitor, partial curve]",–
CCCCCCCCCC[n+]1cccc(C(=O)N(CC)CC)c1,active: 2.91 µM,–
COc1cc(OC)cc(C(=O)N[C@H](C(=O)OCC(=O)NC(C)c2ccccc2)C(C)C)c1 (some centres undefined),inactive,–
O=C(Nc1ncccc1O)c1c(O)c2ccccc2[nH]c1=O,"inconclusive [inhibitor, single point]",–
CCc1ccccc1NC(=O)c1oc(=O)c2ccccc2c1-c1ccccc1,"inconclusive [inhibitor, single point]",–
COCCn1c(Cc2ccccc2)nnc1SCc1nc2ccccc2c(=O)[nH]1,active: 16.4 µM,–
CC(C)Oc1cc(C(=O)NC2CCCCC2)c2ccccc2n1,"inconclusive [inhibitor, single point]",–
O=C(NCc1ccccc1)C(c1ccccc1)n1c(-c2ccncc2)nc2ccccc21 (centres undefined),"inconclusive [inhibitor, single point]",–
CC(C)Cn1nc(NC(=O)c2cccc(Cl)c2)c2cc3ccccc3nc21,active: 8.2 µM,–
O=C(NCc1ccco1)C(=O)NCC1OCCN1S(=O)(=O)c1ccc(Br)cc1 (centres undefined),inactive,–
CCC(C)(C)NC(=O)/C=C/c1cccs1,inactive,–
CCOc1ccc(CC(=O)NCC2(N3CCCCC3)CCCCC2)cc1,inactive,–
CCOC(=O)C1CCN(S(=O)(=O)c2ccc(OCC)cc2)CC1,inactive,–
CN(C)CCN1CCN(C2CN(C3CCCC3)S(=O)(=O)C2)CC1 (centres undefined),inactive,–

Structure (SMILES),Potency,"activity change, negative = growth inhibition"
CCC(C)NCC(O)(c1ccc(Cl)cc1)c1ccc(Cl)cc1 (centres undefined),active: 23.1 µM,–
Cc1ccc2c(c1)C(=O)C(=O)N2Cc1ccccc1,active: 1.03 µM,–
C=CCNC(=O)N1CCCC(C(=O)c2cccc(OC(C)C)c2)C1 (centres undefined),"inconclusive [inhibitor, single point]",–
CCC(c1nnnn1CCOC)N1CCN(c2nc3ccccc3s2)CC1 (centres undefined),"inconclusive [inhibitor, single point]",–
CCOc1ncccc1C(=O)Nc1ccc(-c2ccc3nnc(C)n3n2)cc1,"inconclusive [inhibitor, single point]",–
CC[C@]12C(=O)N(C)C[C@H]([C@@H]3C(=O)N(Cc4ccccc4)C(=O)[C@@H]31)N2C(=O)c1ccc(C(F)(F)F)cc1,inactive,–
CCN(C(=O)c1cccnc1SC)C12CC3CC(CC(C3)C1)C2,active: 20.6 µM,–
O=c1c2ccccc2nc(/C=C/c2cccc(Br)c2)n1CCCO,active: 13 µM,–
Cc1cccc2c(=O)cc(CSc3ccccc3NC(=O)C(C)C)[nH]c12,"inconclusive [inhibitor, single point]",–
CC1CN(c2nnnn2-c2ccccc2)CC(C)O1 (centres undefined),inactive,–
Cc1ccc2nc3c(cc(C#N)c(=O)n3-c3nnc(SCc4ccc(F)cc4)s3)c(=O)n2c1,inactive,–
COc1cc(/C=N/NC(=O)/C(=C/c2ccccc2)CCO)ccc1O,inactive,–
CCCN(CCC)C(=O)Cn1c(=O)n(-c2ccc(OC)cc2OC)c(=O)c2c3c(sc21)CCC3,"inconclusive [inhibitor, single point]",–
CCOc1ccc(CNC(=O)c2ccc3c(c2)c(C)c(C)n3C)cc1,"inconclusive [inhibitor, single point]",–
CC(C)C[C@H](NC(=O)c1[nH]cnc1C(=O)Nc1ccccc1)C(=O)OC(C)(C)C,"inconclusive [inhibitor, single point]",–
Cc1cc(C)c2sc(NC(=O)C3CC3)nc2c1,"inconclusive [inhibitor, single point]",–
Cc1ccc(C(=O)CNc2nc3c(c(=O)[nH]c(=O)n3C)n2Cc2ccccc2)cc1,"inconclusive [inhibitor, single point]",–
COc1cc(CNc2ncnc3c2ncn3[C@H]2CN(Cc3ccc(-c4ccccc4)cc3)C[C@@H](CO)O2)cc(OC)c1OC,active: 11.6 µM,–
CCOc1ccccc1NC(=O)Cn1c(=O)n(CC(=O)NCc2ccccc2Cl)c(=O)c2sccc21,active: 9.2 µM,–
Cc1ccc(C(c2nnnn2C(C)(C)C)N2CCN(C3CCCC3)CC2)cc1 (centres undefined),"inconclusive [inhibitor, single point]",–
Cc1c(C(=O)NCc2ccccn2)sc2nc(-c3ccccc3)cn12,"inconclusive [inhibitor, single point]",–
CCN1CCCC1CNCc1cc2ccc(SC)cc2nc1-c1cc(OC)ccc1OC (centres undefined),inactive,–
COc1ccccc1Nc1nc(NCC2CCCO2)c2ccccc2n1 (centres undefined),active: 20.6 µM,–
O=Cc1ccc(OC(=O)c2cc(Cl)nc3ccccc23)cc1,active: 20.6 µM,–
O=C(COC(=O)c1ccccc1)Nc1ccccc1Sc1ccccc1,inactive,–

Structure (SMILES),Potency,"activity change, negative = growth inhibition"
CCNC(=O)CSc1nc2cc(S(=O)(=O)Nc3ccc(OC)cc3)ccc2o1,inactive,–
CC1(C(=O)NS(=O)(=O)c2ccc3c(c2)CCO3)CCN1C(=O)c1ccccc1CCc1ccccc1 (centres undefined),"inconclusive [inhibitor, single point]",–
Cc1ccc(C)c(CN2CCC(CNC(=O)CCc3nnc4ccc(N5CCCCC5)nn34)CC2)c1,inactive,–
COCCn1c(SCC(=O)NN2C(=O)NC(C)(c3ccccc3)C2=O)nnc1-c1ccncc1 (centres undefined),inactive,–
O=C(CNc1ccc2ccccc2c1)N/N=C/c1ccccn1,active: 18.4 µM,–
CCOc1cc(/C=C2\C(=N)N3N=C(C)SC3=NC2=O)ccc1OCCOc1ccccc1,inactive,–
CC(C)c1ccc2c(c1)NC(c1ccc(F)cc1)=NC(c1cccs1)=N2,"inconclusive [inhibitor, single point]",–
O=C1NN=C(c2ccccc2)CC1c1ccc(Cl)cc1Cl (centres undefined),"inconclusive [inhibitor, partial curve]",–
COc1cccc(-c2nc(CS(=O)(=O)CC(=O)NCCCN3CCOCC3)c(C)o2)c1,inactive,–
CC(C)COc1ccc(/C(=N/O)c2ccccc2)cc1,"inconclusive [inhibitor, partial curve, poor fit]",–
COc1ccc(C(=O)NCCNc2nc3ccc(C)cc3cc2C#N)cc1,"inconclusive [inhibitor, single point]",–
CCOC(=O)C1CCCN(C(=O)C2CCN(c3nnc(-n4cccc4)s3)CC2)C1 (centres undefined),inactive,–
COc1cccc(C(=O)Nc2cc(NC(=O)c3cccs3)ccc2C)c1OC,"inconclusive [inhibitor, single point]",–
C[C@@H]1CCC(=O)N(CC[C@H](Sc2ccccc2)c2ccccc2)CC1,active: 12.6 µM,–
O=C(NCc1cccc(Br)c1)C1CC(c2ccc(C(F)(F)F)cc2)=NO1 (centres undefined),"inconclusive [inhibitor, single point]",–
Cc1ccc(NC(=O)Nc2nnc(SCC(=O)N3CCCCC3)s2)cc1,"inconclusive [inhibitor, partial curve]",–
COc1ccc(S(=O)(=O)NCC(c2cccs2)N2CCc3ccccc3C2)cc1 (centres undefined),"inconclusive [inhibitor, single point]",–
O=C(NCCCN1CCOCC1)c1ccc2c(c1)N(Cc1c(F)cccc1Cl)C(=O)c1ccccc1S2,"inconclusive [inhibitor, single point]",–
Cc1ccc(C)n1-c1ccc(N2CCOCC2)cc1,"inconclusive [inhibitor, partial curve]",–
O=C(c1ccsc1)N1CCCC(N2CCN(c3ccccc3F)CC2)C1 (centres undefined),–,inconclusive: -35.1% [inhibitor]
CCc1noc(C)c1C(=O)Oc1ccc(N(C)S(=O)(=O)c2ccc(C)c(C)c2)cc1,"inconclusive [inhibitor, single point]",–
CCOC(=O)N1CCN(S(=O)(=O)c2ccc([N+](=O)[O-])cc2)CC1,inactive,–
CCN(CC)S(=O)(=O)c1ccc(Nc2cc(C)nc3ncnn23)cc1,"inconclusive [inhibitor, partial curve]",–
Cc1cccc(C(=O)NCCc2nc3ccccc3n2Cc2ccccc2Cl)c1,"inconclusive [inhibitor, single point]",–
